Among all 410,000 compounds or so, about 7,200 (1.8%) were called active. The inconclusive results got no clear call from the source; some entries with a clear call stand among them for comparison. Calls follow the shape of the dose curve; as a rule, active = well fitted activation curve with a large enough effect; inconclusive = small, poorly fitted or top-dose-only effect, or another doubt; inactive = no such curve, though single readings can be large or run the other way. Potencies of inconclusive entries are left out as doubtful fits.
Test: qHTS of TDP-43 Inhibitors; also: nearly all actives have a fitted effect of over 50% in size; as to growth rescue (activation): % of control where 0% means no effect
Settings: TDP-43 expressing yeast growth rescue, BacTiter-Glo, 24 h; growth rescue (activation): at 46.1 µM (top of the series) unless noted
In short: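 Growth rescue of TDP-43-toxic yeast measured as ATP luminescence (BacTiter-Glo). Cells grown to mid-log in raffinose, induced in galactose at OD600=0.02, exposed to compound 24 hr at 30 deg C.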
Potency is read from the fitted curve at half-maximal effect; tags tell the direction and shape of the fitted curve.

SMILES | Potency | growth rescue (activation)
COC(=O)c1cccc(NC(=O)Cc2ccc(OC)cc2)c1C | inconclusive [activator, full curve, poor fit] | –
Cc1cc(=O)oc(C)c1C(=O)OCC(=O)c1ccc2ccccc2c1 | inconclusive [activator, partial curve] | –
COc1ccc(Cl)cc1C(=O)CSc1nnnn1C1CCCC1 | inconclusive [activator, single point] | –
CCOC(=O)CSc1nnc(-c2cccs2)n1-c1ccccc1 | inactive | –
CCN(CC)c1ccc(-c2nn3c(-c4ccccc4OC)nnc3s2)cc1 | inconclusive [activator, single point] | –
NC[C@@H]1O[C@H](C23CC4CC(CC(C4)C2)C3)Cc2c1ccc(O)c2O | inactive | –
Cc1cccc2[nH]c3c(=O)n(CCN4CCNCC4)cnc3c12 | inactive | –
CCCC(=O)NC(c1ccccc1OC)c1ccc2cccnc2c1O (configuration not stated) | inconclusive [activator, single point] | –
COc1ccc(-n2nc([N+](=O)[O-])c(=NCCC3=CCCCC3)n2O)cc1 | active: 20 µM | –
Cc1ccc(OCC(=O)Nc2ccccc2F)cc1 | inconclusive [activator, partial curve] | –
Cc1cc(OCC(=O)N2CCc3ccccc3C2)c2c(-c3ccccc3)cc(=O)oc2c1 | inconclusive [activator, single point] | –
Cc1ccc(C23CC4CC(CC(C(=O)OCC(=O)N(C)C)(C4)C2)C3)cc1 | inconclusive [activator, partial curve] | –
COc1cccc(Nc2nc(-c3sc(C)nc3C)cs2)c1 | inconclusive [activator, single point] | –
Cc1cccc(NC(=O)C2CCN(S(=O)(=O)c3c(C)c(C)cc(C)c3C)CC2)n1 | inactive | –
O=[N+]([O-])c1ccc(N2CCCC2)c([N+](=O)[O-])c1 | inconclusive [activator, partial curve, poor fit] | –
COc1ccc(OC)c(NC(=O)c2cc3c(s2)-c2ccccc2SC3)c1 | inactive | –
CCNC(=O)C1CCCN(C(=O)c2ccc(OC)c(OC)c2)CC1 (configuration not stated) | inactive | –
COc1ccc(OC)c(NC(=S)N(CCc2c(C)[nH]c3ccc(C)cc23)Cc2cccs2)c1 | inconclusive [activator, partial curve] | –
COc1ccc(-c2cc(NC=O)c3ncc(-c4cccc(OC)c4)n3c2)cc1 | active: 10 µM | –
COc1cc(C(=O)NCCOc2ccc(C)c(C)c2)cc(OC)c1OC | inconclusive [activator, partial curve, poor fit] | –
COc1cc2ccccc2cc1C(=O)N1CCN(c2nc3c(F)cccc3s2)CC1 | active: 11.2 µM | –
Cc1cc([N+](=O)[O-])ccc1NCc1ccccc1 | inconclusive [activator, single point] | –
Cc1c(CCOC(=O)C23CC4CC(CC(C)(C4)C2)C3)sc[n+]1CC(=O)c1ccccc1 | inconclusive [activator, full curve, poor fit] | –
CCOC(=O)N1CCN(C(=O)c2cc3c(s2)-c2c(C)cccc2OC3)CC1 | inconclusive [activator, partial curve] | –

SMILES | Potency | growth rescue (activation)
CCOc1ccc(-c2cccc(NC(=O)c3ccco3)c2)nn1 | inconclusive [activator, full curve] | –
COc1ccccc1/C(C)=N/Oc1cc(N)cc([N+](=O)[O-])c1 | inconclusive [activator, partial curve] | –
Cc1c(C(=O)NCc2ccc3c(c2)OCCO3)sc(=O)n1Cc1ccc2c(c1)OCO2 | inconclusive [activator, single point] | –
CC1(C)CC2CC(C)(CN2C(=O)COC(=O)c2cc(Cl)cc(Cl)c2N)C1 (configuration not stated) | inactive | –
Cc1ccc(Cl)cc1-c1ccc(/C=N/n2cnnc2)o1 | inconclusive [activator, partial curve] | –
O=C(c1ccccc1)N1CCC(c2nc3ccccc3o2)CC1 | inactive | –
COc1ccc(CNc2oc(COc3ccc(Cl)cc3)nc2C#N)cc1 | inconclusive [activator, single point] | –
O=c1c2sc3ccccc3c2n(Cc2cccc(C(F)(F)F)c2)c(=O)n1-c1ccccc1 | inconclusive [activator, full curve, poor fit] | –
CCOC(=O)c1[nH]c(=S)n(-c2ccccc2)c1C(=O)OCC | inconclusive [activator, partial curve] | –
Cc1ccc2c(c1)N(C(=O)Nc1ccc(Br)cc1F)CCO2 | inconclusive [activator, partial curve, poor fit] | –
COc1cccc(CC(=O)Nc2ccc3nc(C)sc3c2)c1 | inconclusive [activator, single point] | –
CCNC(=S)N/N=C(\C)c1ccc2ccccc2c1OC(F)F | inconclusive [activator, single point] | –
Oc1c(Cl)cc(Cl)c2cccnc12 | – | inconclusive: -71% [activator]
CCC(C(=O)Nc1cc(C)cc(C)n1)c1ccccc1 (configuration not stated) | inconclusive [activator, partial curve] | –
COc1cc(OC)cc(-c2nc3ccccc3c(=O)o2)c1 | inactive | –
O=S(=O)(Cc1nnnn1-c1ccccc1)c1ccc(Cl)cc1 | inconclusive [activator, partial curve] | –
CN(C(=O)COc1cc(=O)n(C)c2ccccc12)c1ccc(Cl)cc1 | inactive | –
O=C1c2ccccc2/C(=C\C#Cc2ccccn2)N1c1ccccc1 | inconclusive [activator, partial curve] | –
N=C1SCC(=O)N1c1ncc(Cc2cccc(Cl)c2)s1 | active: 8.91 µM | –
CCCCNC(=O)c1nc(C2CCN(S(=O)(=O)c3ccc(S(C)(=O)=O)cc3)CC2)oc1-c1ccccc1 | inactive | –
CCc1ccccc1N(CC)C(=O)C(=O)Nc1ccc2nc3n(c(=O)c2c1)CCCCC3 | inconclusive [activator, partial curve] | –
COc1nc(NCCC2=CCCCC2)nc(OC)n1 | inconclusive [activator, single point] | –
CC1CN(C(=O)COc2ccc3ccccc3c2Br)CC(C)O1 (configuration not stated) | inconclusive [activator, partial curve] | –
S=C(NCCc1ccccc1)N/N=C/c1ccccc1Cl | inconclusive [activator, partial curve] | –

SMILES | Potency | growth rescue (activation)
COc1cc(NC(=O)COc2cccc(OC)c2)cc(OC)c1 | inconclusive [activator, single point] | –
CCOC(=S)SCC(=O)Nc1ncc(C)s1 | inconclusive [activator, single point] | –
CN(C(=O)c1ccccc1)c1nc2ccccc2s1 | inconclusive [activator, single point] | –
CCNC(=O)CC1C(=O)N(c2ccc(F)cc2)C(=O)N1Cc1ccc(OC)c(OC)c1 (configuration not stated) | inactive | –
O=C(Nc1ccccn1)c1ccc(Cl)c(S(=O)(=O)N2CCc3ccccc32)c1 | inconclusive [activator, single point] | –
CCOc1nc(Nc2ccccc2F)nc(OCC)n1 | inconclusive [activator, single point] | –
CC1(C)Cc2cccc(OCC(=O)Nc3ccccc3F)c2O1 | inconclusive [activator, full curve, poor fit] | –
Cc1ccsc1C(=O)Nc1cc(Cl)ccc1-n1cncn1 | active: 17.8 µM | –
COCc1cccc(-c2csc(C(N)c3ccc(F)c(F)c3)n2)c1 (configuration not stated) | inactive | –
O=C1c2ccccc2-c2onc3ccc(Oc4ccccc4)c1c23 | active: 7.08 µM | –
COc1cccc2cc(C(=O)NCCc3ccccc3)oc12 | inconclusive [activator, partial curve] | –
CN(Cc1ccccc1)S(=O)(=O)c1ccccc1[N+](=O)[O-] | inconclusive [activator, partial curve] | –
Cn1c(COc2ccccc2C(C)(C)C)nc2ccccc21 | inconclusive [activator, partial curve, poor fit] | –
CCOC(=O)c1cc2c(N)c(C(=O)c3ccc(Br)cc3)sc2[nH]c1=O | inactive | –
Cc1[nH]c(-c2ccccn2)nc(=S)c1Cl | inconclusive [activator, single point] | –
CCOC(=S)SCC(=O)Nc1nc(C)c(C)s1 | active: 22.4 µM | –
O=C(Oc1ccc(-c2csnn2)cc1)c1cccs1 | inconclusive [activator, full curve] | –
O=C(CSc1ccc(Cl)cc1)NC(=O)NC1CCCC1 | inconclusive [activator, single point] | –
COc1ccc2c(c1)C(NS(=O)(=O)OCC(Cl)(Cl)Cl)CCC2 (configuration not stated) | inconclusive [activator, single point] | –
Cn1c(NCCN2CCCC2)nc2cc(-c3ccccc3)sc2c1=O | inactive | –
CCCCNC(=O)c1ccc2c(c1)NC(=O)C(C(C)C)N2 (configuration not stated) | inactive | –
Nc1cc(N2CCOCC2)c(Cl)cc1[N+](=O)[O-] | active: 20 µM | –
O=c1[nH]nc(N2CCOCC2)c(=O)[nH]1 | inconclusive [activator, single point] | –
O=C(CCC(=O)N1CCN(S(=O)(=O)c2ccccc2Cl)CC1)c1ccccc1 | inconclusive [activator, partial curve] | –

— PubChem BioAssay AID652104 (National Center for Advancing Translational Sciences (NCATS), 2013)
